Screen size: about 150,000 compounds; about 540 (0.36%) showed an effect of 50% or more. This is one part of the list.

The assay relates to Plasmodium falciparum. The experiment in a line: Primary screen in NF54 nanoGlo assay, in single point, at 2uM, 72h; a lower Z score goes with more inhibition. As to conditions: timepoint 72 hour. In kind it is functional, Erythrocyte.
By % Inhibition is commonly meant the drop in the measured response relative to a control, in per cent. As for `CCN1CCN(CCC(=O)NC(C)(C)c2nc(C)cs2)CC1`, the “% Inhibition” value came to 6% and the Z score is given as -0.9.

In the case of `Cc1cc(NCc2nc(CC(C)C)no2)nn1CC(F)(F)F`, the “% Inhibition” value was determined as 0% and the Z score was found to be 0.04.

Turning to `Cc1nocc1CN1C[C@@H](F)C[C@H]1CO`, the “% Inhibition” value is listed as -10% and the Z score is on record as 1.15.

Take `Cc1cc(S(=O)(=O)N2CCC(=O)Nc3cccnc32)c(C)o1`: the “% Inhibition” value is reported as 1% and the Z score is given as -0.09.

Turning to `Cn1cc(-c2csc(CC(=O)NCc3ccco3)n2)cn1`, the “% Inhibition” value is -5% and the Z score is listed as 0.48.

Regarding `Nc1nn2cc(-c3cc4ccccc4o3)nc2c2ccccc12`, the “% Inhibition” value is -6% and the Z score is reported as 1.22.

`CCn1nccc1CN1CC2CCCC2(C(=O)OC)C1` (configuration not stated): the “% Inhibition” value is -13% and the Z score came to 1.5.

For `O=C(NCc1noc(-c2cccc(F)c2)n1)c1cncc(N2CCOCC2)c1`, the “% Inhibition” value was 0% and the Z score was 0.

For the compound `COc1c(C)cnc(CN2CCC(N(C)C(=O)Cc3cnn(C)c3)CC2)c1C`, the “% Inhibition” value was 7% and the Z score was -1.04.

Turning to `FC(F)(F)c1cccc(N2CCN(c3nc(-c4ccccc4)nc4sc(-c5ccccc5)cc34)CC2)c1`, the “% Inhibition” value is -8% and the Z score was 0.85.

For the compound `Cc1c(CC(=O)NCC(F)F)c2c(n1Cc1ccc(F)cc1)CCCC2=O`, the “% Inhibition” value is given as -9% and the Z score came to 0.9.

With `COc1cc(CC2CN(C(=O)c3ccc(=O)n(C)n3)C2)cc(OC)c1`, the “% Inhibition” value was -11% and the Z score amounted to 1.49.

As to `COc1cccc(CC(=O)N2CCCCCCN(C)C(=O)[C@H]3CCC[C@H]32)c1`, the “% Inhibition” value is given as -12% and the Z score came to 1.91.

For the compound `CCOCCn1ccnc1-c1cccnc1`, the “% Inhibition” value was -1% and the Z score is on record as 0.14.

As to `Cc1csc(CN(C[C@H]2CCCO2)C(=O)Nc2cn(C)nn2)n1`, the “% Inhibition” value is on record as -4% and the Z score was found to be 0.55.

In the case of `COc1cc(OC)cc(C(=O)N/C(=N/c2ccc3c(c2)OCCO3)NC[C@H]2CCCO2)c1`, the “% Inhibition” value was -11% and the Z score is 0.98.

Take `Cc1cccc(OCC(O)CNC2C3CCCOC3C2(C)C)c1` (configuration not stated): the “% Inhibition” value was -10% and the Z score turned out to be 0.93.

For `O=C(Nc1ccc(NC2CCOCC2)cc1)[C@@H](O)CC1CCCCC1`, the “% Inhibition” value was -11% and the Z score was 1.76.

On to `Cc1cc(C)cc(Nc2nc(-c3c[nH]c4ccccc34)cs2)c1`, for which the “% Inhibition” value is on record as 0% and the Z score was 0.07.

For the compound `O=C(NCCCNCc1cnc(C2CCC2)s1)c1cccc(O)c1`, the “% Inhibition” value was found to be 3% and the Z score is reported as -0.42.

With `COc1ccc2oc(CN[C@@H](C)CCn3cccn3)nc2c1`, the “% Inhibition” value was -6% and the Z score is on record as 1.11.

As for `CCCNC(=O)CN(C)Cc1nnnn1CCC`, the “% Inhibition” value is 3% and the Z score is -0.42.

For `Cc1nn(C(C)(C)C)cc1C(=O)N[C@H]1CCCNC1=O`, the “% Inhibition” value is reported as -6% and the Z score was found to be 0.69.

On to `CC(C)CC(C)NC(=O)N1CCCC(C2(C)OCCO2)C1` (configuration not stated), for which the “% Inhibition” value is recorded as -2% and the Z score came out at 0.28.

Regarding `O=C(CN1CC[C@@H](C(=O)O)c2cc(Br)ccc21)Nc1ccon1`, the “% Inhibition” value was -1% and the Z score is on record as 0.11.

With `Cc1oc(-c2cccc(Cl)c2)nc1CN1CCN(S(=O)(=O)c2cccs2)CC1`, the “% Inhibition” value is reported as -6% and the Z score is listed as 1.09.

In the case of `CCN(C[C@H](C)C#N)C(=O)C1CCOCC1`, the “% Inhibition” value is -13% and the Z score amounted to 1.86.

Consider `Cc1n[nH]nc1C(=O)N[C@@H](C)c1c(C)n[nH]c1C`, for which the “% Inhibition” value is on record as 12% and the Z score is -1.1.

As to `CN1CCC2(CCCN(C(=O)c3n[nH]c4ccccc34)CC2)CC1`, the “% Inhibition” value is on record as -4% and the Z score is 0.74.

For the compound `COCCn1ccnc1CN1CCc2nc(C)[nH]c2C1`, the “% Inhibition” value is 2% and the Z score was -0.31.

In the case of `O=C(N1CC[C@H](Oc2ccncc2Cl)C1)C1(c2ccccc2)CCOCC1`, the “% Inhibition” value came out at 4% and the Z score is -0.83.

With `Cn1c(Oc2ccc(Cl)c(Cl)c2)cc(=O)n(C)c1=O`, the “% Inhibition” value is listed as -5% and the Z score was determined as 0.69.

As for `O=C(CN1CCCC1=O)N1CCC(c2nnc(-c3ccc(F)cc3)o2)CC1`, the “% Inhibition” value was -23% and the Z score was 2.55.

For `CC[C@H]1OCC[C@@H]1C(=O)Nc1nc(-c2ccccc2Cl)nn1C`, the “% Inhibition” value was -7% and the Z score was found to be 1.23.

Consider `C[C@]1(NC(=O)c2c(O)cc(Cl)cc2Cl)CCOC1`, for which the “% Inhibition” value is given as -7% and the Z score is 0.88.

As for `Cc1ccc(CN2CC[C@H](CNC(=O)C3CCC3)C2)c(C)c1F`, the “% Inhibition” value is -8% and the Z score amounted to 1.4.

Turning to `C[C@H](NC(=O)NCC1(c2ccccc2Cl)CCC1)c1nnnn1C`, the “% Inhibition” value is recorded as -6% and the Z score worked out at 0.66.

Regarding `O=C(CCc1ccncc1)N1CC[C@@H]2OCc3cnnn3[C@@H]2C1`, the “% Inhibition” value is listed as -3% and the Z score is 0.49.

On to `O=C(Cn1c2ccccc2c(=O)c2cc(Cl)ccc21)Nc1ccc(Oc2ccccc2)cc1`, for which the “% Inhibition” value is listed as 10% and the Z score is reported as -1.18.

For `CC(C)c1noc(NC(=O)c2cc3ccccc3o2)n1`, the “% Inhibition” value was -10% and the Z score is recorded as 1.52.

Turning to `CC(C)(C)c1ncc(C(=O)NCc2ccncc2)c(O)n1`, the “% Inhibition” value was -10% and the Z score turned out to be 1.98.

`CCc1csc(N2CC[C@@H](Oc3ccccc3)C2)n1`: the “% Inhibition” value was -17% and the Z score is on record as 2.17.

Regarding `O=C(c1cncc(Br)c1)N1Cc2cccnc2C1`, the “% Inhibition” value was -10% and the Z score is on record as 1.12.

Turning to `O=C(NC1CCCCC1)n1oc(=O)cc1-c1ccccc1`, the “% Inhibition” value is listed as -10% and the Z score was determined as 1.47.

Consider `O=C(Nc1ccc(-c2nnc3n2CCCC3)cc1)c1cccnc1O`, for which the “% Inhibition” value is given as 23% and the Z score was -2.14.

Take `COc1ccc2[nH]nc(NC(=O)CCCn3nc(C)nc3C)c2c1`: the “% Inhibition” value is recorded as -10% and the Z score is listed as 1.89.

Take `CN(CC1(O)CCCCCC1)C(=O)NCCc1cccc(C#N)c1`: the “% Inhibition” value amounted to 2% and the Z score is -0.3.

As to `O=S(=O)(CCCOc1ccc2c(c1)OCO2)N1CCCC1`, the “% Inhibition” value is -11% and the Z score was determined as 1.23.

On to `Cc1csc(NC(=O)C2CCCC(C(=O)Nc3nc(C)cs3)C2)n1` (configuration not stated), for which the “% Inhibition” value was found to be 2% and the Z score is recorded as -0.25.

`C[C@H]1CNCCN1C(=O)CCc1ccc(Cl)s1`: the “% Inhibition” value is reported as -10% and the Z score is recorded as 0.96.

`COc1ccc(OC)c(NC(=O)c2nnn(CC(=O)NCc3ccccc3Cl)c2C)c1`: the “% Inhibition” value is on record as 4% and the Z score is listed as -0.56.

As to `Cc1ccnc(NC2CCCC3OCCC23)n1` (configuration not stated), the “% Inhibition” value is -11% and the Z score is listed as 1.1.

As to `CC/C=C\CCCN1CCC[C@](C)(C(=O)NC)C1`, the “% Inhibition” value is 5% and the Z score is -0.96.

Turning to `COc1cccc(Cn2c(C)c(C3CCN(S(=O)(=O)c4ccccc4C(F)(F)F)CC3)c3ccccc32)c1`, the “% Inhibition” value was -10% and the Z score is 1.35.

With `Cc1nn(C)c(C)c1C(=O)N[C@H](c1cccnc1)C1CCOCC1`, the “% Inhibition” value was -9% and the Z score is listed as 1.7.

Consider `CCCc1nnc(NC(=O)c2ccccc2OCc2cn3cccc(C)c3n2)s1`, for which the “% Inhibition” value is -4% and the Z score is given as 0.36.
